Hit rate of the full screen: of about 43,000 compounds, about 200 (0.47%) were called active. Inconclusive results (about 12%) are left out. The call rests on the fitted dose curve; in most records, active means well fitted cell-killing curve with a large enough effect; inconclusive means small, poorly fitted or top-dose-only effect, or effect the other way; inactive means flat fitted curve, though single readings scatter. The list shows a part of the results.
On the % scale 0 is the no-effect control and ±100 the full control effect.

The nature of the assay: Cell viability qHTS assay in S16 Pmp22-F2sN cells. Further: nearly all actives have a fitted effect of over 65% in size. The settings on record: S16 Pmp22-F2sN Schwann cells viability, CellTiter-Glo, 24 h; series mostly up to 57.5 µM; activity change, negative = cytotoxicity: at the top concentration. Put shortly:
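Viability was measured by CellTiter-Glo luminescence (15 min, room temperature). This followed 24 h at 37 °C of compound exposure (23 nL pin transfer) in S16 Pmp22-F2sN Schwann cells, 500-1,000 per well.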
In the case of `COc1cc(C2c3c(oc4cc(C)c(C)cc4c3=O)C(=O)N2CCCN2CCOCC2)ccc1O` (configuration not stated), the “activity change, negative = cytotoxicity” value was inactive: 13.3%. The same measure for `Cc1ccc2c(c1)c1c(c(=O)n(-c3cccc(Cl)c3)c(=O)n1CC(=O)N1CCCC1)n2C`: inactive: 8.2%. The figure for `CCOc1ccc(-n2c(SCc3nc(-c4ccc(OC)cc4)no3)nnc2-c2ccncc2)cc1` is inactive: -10.4%; for `COc1ccc(Br)cc1CNC(=O)c1cc(=O)[nH]c2ccc(S(=O)(=O)N3CCCC3)cc12` it is inactive: 17.6%; for `CCOc1cccc2cc(-c3nc4sc5c(c4c(=O)[nH]3)CCC(C(C)(C)C)C5)c(=O)oc12` (configuration not stated) it is inactive: 5%. `COc1ccc(NCc2cc3cc4c(cc3n(CC(=O)Nc3cc(C)ccc3C)c2=O)OCCO4)cc1`: the “activity change, negative = cytotoxicity” value was inactive: -12%. For the compound `CC(C)c1ccc(NS(=O)(=O)c2ccc3nc(-c4ccccc4)[nH]c3c2)cc1`, the “activity change, negative = cytotoxicity” value is inactive: -25.9%. The same measure for `Cc1nn2c(=O)cc(COC(=O)c3ccccc3NC(=O)C(C)Oc3ccccc3)nc2s1` (configuration not stated): inactive: 27.6%; for `CCOc1ccc(CN2CCc3nc(Nc4ccc5c(c4)OCCO5)ncc3C2)cc1`: inactive: -1.2%; for `COc1ccc(CCNC(=O)c2ccc(Cn3c(=O)c4ccccc4n(Cc4cccc(Cl)c4)c3=O)cc2)cc1OC`: inactive: 6.69%.

Consider `CCOc1ccccc1NC(=O)C(CC)Sc1nc2ccncc2[nH]1` (configuration not stated), for which the “activity change, negative = cytotoxicity” value is inactive: 0.443%. In the case of `COc1ccc(NC(=O)c2ccc3c(c2)sc2nc(-c4ccc(OC)cc4)cn23)cc1`, the “activity change, negative = cytotoxicity” value was inactive: 2.76%. With `Cc1ccc(NC(=O)Cn2c(=O)n(Cc3ccco3)c(=O)c3ccccc32)c(C)c1`, the “activity change, negative = cytotoxicity” value is inactive: 18%. The same measure for `CCN(CC)c1cc2c(cc1F)c(=O)c(S(=O)(=O)c1cccc(C)c1)cn2C`: inactive: 0.111%.

Take `CCOc1ccc(C2CC(=O)N(c3cccc(F)c3)C3=C2C(=O)OC3)cc1` (configuration not stated): the “activity change, negative = cytotoxicity” value is inactive: 4.17%. The same measure for `Cc1ccc(-n2nc3c(=O)n(CCCC(=O)NCCc4ccccc4Cl)nc(C)c3c2C)cc1`: inactive: -2.27%; for `Cc1ccc(-n2c(=O)c3ccc(C(=O)NCc4ccco4)cc3n(Cc3ccccc3C#N)c2=O)cc1`: inactive: -1.97%. The same measure for `Cn1c(=O)c2cc(C(=O)NCCCN3CCN(c4ccccc4F)CC3)sc2c2ccccc21`: inactive: -14.4%; for `CCOC(=O)c1ccc(NC(=O)c2cc3sccc3n2Cc2ccc(Cl)cc2)cc1`: inactive: 1.23%; for `Cc1cccc(NC(=O)CSc2nc(-c3ccco3)cc(C(F)(F)F)n2)c1C`: inactive: 2.21%. The same measure for `Cc1cccc(N2CCN(S(=O)(=O)c3csc(C(N)=O)c3)CC2)c1C`: inactive: -15.2%; for `Cc1ccc(N(Cc2cccs2)C(=O)c2ccccc2Cl)cc1`: inactive: 11%. For the compound `COc1ccc(NC(=O)C(C)N(c2ccccc2)S(C)(=O)=O)cc1` (configuration not stated), the “activity change, negative = cytotoxicity” value is inactive: -0.457%. The figure for `COc1ccc(C)cc1NC(=O)Cn1c(=O)n(Cc2nc(C)no2)c(=O)c2ccccc21` is inactive: -18.2%; for `O=C(Nc1nnc2n1CCS2)c1ccc(F)cc1F` it is inactive: 3.51%; for `O=C(c1ccccc1Cl)N1CCCCC1CCN1CCCCC1` (configuration not stated) it is inactive: -1.13%. In the case of `CCOc1ccc(NC(=O)C(=O)NCc2ccco2)cc1`, the “activity change, negative = cytotoxicity” value was inactive: -0.0401%. The figure for `COc1cccc(C(=O)NCC(c2ccc3c(c2)OCO3)N2CCOCC2)c1` (configuration not stated) is inactive: -9.05%; for `COc1ccc(C2=C(C)C(N3CCC(C(=O)Nc4ccc(F)cc4C)CC3)=NS2(=O)=O)cc1` it is inactive: -3.73%. The figure for `O=C(Nc1ccc(Cl)c(C(F)(F)F)c1)C(Cc1ccccc1)NS(=O)(=O)c1ccc(Br)s1` (configuration not stated) is inactive: 1.78%; for `CC1(C)CC(=O)c2cc(C(=O)Nc3ccccc3Cl)c(=O)n(-c3ccc(Cl)cc3)c2C1` it is inactive: -0.517%.

For the compound `COc1ccc2cc3cc(C(=O)NCc4ccccc4OC)oc3nc2c1`, the “activity change, negative = cytotoxicity” value was inactive: 0.415%. The same measure for `O=C(NCc1ccccc1)C(=O)NCC(c1cccs1)S(=O)(=O)c1ccccc1` (configuration not stated): inactive: -11.9%. The same measure for `CCSc1nnc(NC(=O)c2cc(=O)c3cc(C)c(C)cc3o2)s1`: inactive: -3.89%; for `O=C(Nc1cccc(C(F)(F)F)c1)c1cc(-c2ccc3c(c2)OCCO3)on1`: inactive: 1.61%; for `CCc1cnc2c(c1SCC(=O)c1ccc(Cl)cc1)c(=O)n(C)c(=O)n2C`: inactive: -5.64%.

In the case of `COc1ccc(Cn2c(=O)c3cccnc3n(CC(=O)Nc3c(C)cc(C)cc3C)c2=O)cc1`, the “activity change, negative = cytotoxicity” value was inactive: 5.66%.

As to `CCOC(=O)c1c(-c2ccc(OC)cc2)oc2ccc(OCc3ccc(Br)cc3)cc12`, the “activity change, negative = cytotoxicity” value was inactive: 0.247%. The figure for `Cc1cccc(NC(=O)CSc2nc3ccccc3nc2N2CCOCC2)c1C` is inactive: -2.87%; for `CCOc1ccc(CNS(=O)(=O)c2cc3c(cc2C)NC(=O)CO3)cc1` it is inactive: 2.05%; for `CC(=O)c1ccc(N2CCN(C(=O)CCCCn3c(=O)[nH]c4ccsc4c3=O)CC2)cc1` it is inactive: -4.41%. The same measure for `O=C(Nc1nnc2n1CCS2)c1ccccc1C(F)(F)F`: inactive: 0.921%; for `CC(C)CCNC(=O)CCC(=O)NNc1nc2ccccc2c2nc(-c3ccccc3)nn12`: inactive: 1.01%. For the compound `COc1cc(OC)cc(C(=O)N2CC(=O)Nc3ccc(Cl)cc3C2c2ccccc2)c1` (configuration not stated), the “activity change, negative = cytotoxicity” value was inactive: -11.3%. Turning to `O=C(NCCc1ccc(F)cc1)C(=O)NCC(c1ccco1)S(=O)(=O)c1cccs1` (configuration not stated), the “activity change, negative = cytotoxicity” value is inactive: 3.02%. Turning to `Cc1ccc(N(CC(=O)Nc2ccc(Br)cc2)S(=O)(=O)c2cccs2)cc1`, the “activity change, negative = cytotoxicity” value is inactive: -1.38%. For `COc1ccc(S(=O)(=O)n2nc(C)c(S(=O)(=O)N3CCC(C)CC3)c2C)cc1OC`, the “activity change, negative = cytotoxicity” value is inactive: 3.63%.

These data come from PubChem BioAssay AID1508642 (National Center for Advancing Translational Sciences (NCATS), 2021).
